Among all 150,000 compounds or so, about 540 (0.36%) showed an effect of 50% or more. This is one part of the list.

By % Inhibition is commonly meant the change of the read-out against control, counted positive when it falls.

The subject of this experiment is Plasmodium falciparum. Description: Primary screen in NF54 nanoGlo assay, in single point, at 2uM, 72h; a lower Z score goes with more inhibition. The class given is functional, Erythrocyte. The conditions noted are these: timepoint 72 hour.
As for `CC(C)(C)C(=O)CNC(=O)c1ccoc1`, the “% Inhibition” value is -7% and the Z score is on record as 1.
On the same counts, the results for `O=C(NC1(CN2CCCC2)CCCCC1)c1cccc(-c2ncccn2)c1` are -7% and 1.16.
In the case of `O=C1c2ccccc2N[C@H](c2cccc3ccccc23)N1CCc1ccccc1`, the “% Inhibition” value is given as -19% and the Z score is on record as 3.35.
In the case of `Cc1ccc(C)c2c1NC(=O)[C@H]2CC(=O)N(C)Cc1[nH]nc2c1CCC2`, the “% Inhibition” value came to 8% and the Z score is listed as -0.75.
On the same counts, the results for `CCOc1cccc(CNC(=O)[C@]2(C)CCN(C)C2=O)c1` are -9% and 1.1.
On to `CCC[C@]1(C(=O)O)CCCN(Cc2ccc(CC)cn2)C1`, for which the “% Inhibition” value amounted to 1% and the Z score is reported as -0.23.
Consider `Cc1cc(Oc2cnn(C)c(=O)c2Nc2cccc(C(=O)NCc3ccc(F)cc3)c2)ccc1Cl`, for which the “% Inhibition” value is on record as -19% and the Z score is listed as 1.84.
Regarding `CCOC(=O)N1CCC(NC(=O)c2cc(N)cc3nc(-c4ccccc4OC)n(C)c23)CC1`, the “% Inhibition” value is given as 3% and the Z score is given as -0.3.
On the same counts, the results for `O=C(Cn1c(-c2cccs2)cc2ccccc21)N1CCN(c2ccccc2F)CC1` are -4% and 0.53.
On the same counts, the results for `Cn1c(CNC2CCCC(S(C)(=O)=O)C2)cc2ccccc21` (centres undefined) are 0% and -0.03.
Consider `Cc1ccc(N2CCN(c3nccn4c(=O)n(CC(=O)Nc5ccc(C)cc5Cl)nc34)CC2)cc1`, for which the “% Inhibition” value is reported as -1% and the Z score is 0.08.
On the same counts, the results for `Cc1ccc(S(=O)(=O)Nc2ncccc2N2CCOCC2)o1` are 17% and -2.18.
As for `O=c1sc2ccccc2n1COc1ccccc1`, the “% Inhibition” value is -11% and the Z score turned out to be 1.59.
On the same counts, the results for `Cc1ccc(C(F)(F)F)c(NC(=O)N2CCNC(=O)C[C@@H]2C)c1` are -8% and 1.48.
Consider `COc1cccc2c1C(=O)N1C[C@H](N(C)C)C[C@H]1C(=O)N2`, for which the “% Inhibition” value is reported as -16% and the Z score is given as 2.09.
Turning to `CC(C)COc1ncccc1C(=O)N(c1ccccc1)[C@H]1CCOC1`, the “% Inhibition” value is -6% and the Z score turned out to be 1.13.
Take `CCCc1ccc(CN2CCn3nc(CNS(C)(=O)=O)cc3C2)o1`: the “% Inhibition” value is -4% and the Z score was 0.43.
Turning to `CC(C)Cc1nc2cc(NS(=O)(=O)N(C)C)cc(C(=O)N3CCC[C@H](C(N)=O)C3)c2n1C`, the “% Inhibition” value is listed as -9% and the Z score came to 1.36.
On the same counts, the results for `COc1cc(C(=O)O)cc(-c2ccc(C(=O)N3CCC[C@H](N(C)C)C3)cc2)n1` are -14% and 1.93.
For the compound `O=C(CNC(=O)c1cccc(Cl)c1)NCCOCC(F)(F)C(F)F`, the “% Inhibition” value is on record as 3% and the Z score was -0.3.
On the same counts, the results for `COc1cc(C)c(NC(=O)N2CCc3cc(-c4ccccc4)oc3C2)cc1F` are -7% and 0.81.
In the case of `CCO[C@H]1C[C@@H](NC(=O)c2cnn(C3CCCCC3)c2C)C1`, the “% Inhibition” value was -13% and the Z score was 1.68.
For `Cc1ccc(CN2c3ccc(F)cc3OC[C@@H]2CC(=O)NCc2ccccc2)cc1`, the “% Inhibition” value is -1% and the Z score came to 0.13.
Take `Cc1cc(Cn2ccnc2-c2ccncc2)cc(C)n1`: the “% Inhibition” value is reported as -8% and the Z score is reported as 0.96.
`O=C(O)[C@H]1C[C@@H]1C(=O)Nc1ccnn1C1CCCc2ccccc21` (some centres undefined): the “% Inhibition” value is -10% and the Z score is reported as 2.
As to `CNC(=O)[C@H]1CCN(S(=O)(=O)CCC2CCCC2)C1`, the “% Inhibition” value is -3% and the Z score came out at 0.53.
In the case of `Nc1ccc(C(=O)N2CCNC2=O)cc1`, the “% Inhibition” value was -12% and the Z score is reported as 1.08.
Turning to `Cc1cc(C(=O)N2CCCCCC2)ccc1N(C)S(C)(=O)=O`, the “% Inhibition” value is -15% and the Z score was 2.01.
On to `COc1nc(C)ccc1-c1nnc([C@@H](C)CN2CCC(C)CC2)o1`, for which the “% Inhibition” value is -12% and the Z score worked out at 1.56.
For `COc1ccc(C2=Nc3ncnn3/C2=N/Cc2ccccc2OC)cc1`, the “% Inhibition” value turned out to be 3% and the Z score was -0.39.
On the same counts, the results for `CC(C)CN1CCC(CN(C)C(=O)CC2(c3ccccc3)CC(=O)N(Cc3cccs3)C2=O)C1` (centres undefined) are 1% and -0.06.
Regarding `Cc1nnccc1NC(=O)N[C@H](c1ccncc1)C1CC1`, the “% Inhibition” value stood at 4% and the Z score is given as -0.6.
Consider `O=C(O)[C@H]1CN(C(=O)Cc2ccccc2F)C[C@@H]1c1ccc2c(c1)OCO2`, for which the “% Inhibition” value is reported as -21% and the Z score is 2.
As for `O=C(N[C@H]1CCOC12CCCC2)c1cc(C2CC2)on1`, the “% Inhibition” value is -4% and the Z score was found to be 0.68.
On the same counts, the results for `O=C(Nc1sccc1C(=O)O)c1ccc2c(c1)CCCC2` are -9% and 0.79.
`COc1ccc(C2=CN(CC(=O)c3ccc(Cl)cc3)C3=CCCCCN23)cc1`: the “% Inhibition” value was determined as 37% and the Z score is given as -3.83.
Regarding `CCOC(=O)c1ccc(NC(=O)Cn2nc3ccc(C(=O)Nc4cccc(C)c4)cn3c2=O)cc1`, the “% Inhibition” value is on record as -24% and the Z score is 2.13.
With `O=C(NCC[C@H]1CCCO1)NCc1csc(C2CC2)n1`, the “% Inhibition” value is -8% and the Z score was 1.07.
In the case of `C[C@@H](CCCC(C)(C)O)NCc1cc2ccc(Cl)cc2n(CCOc2ccccc2)c1=O`, the “% Inhibition” value is listed as -2% and the Z score is 0.24.
With `CCOC1CC(CO)(NCc2cc(C#N)cs2)C1(C)C` (centres undefined), the “% Inhibition” value is listed as 1% and the Z score is -0.24.
With `COc1cc(C(=O)NCCn2nc(C)ccc2=O)ncn1`, the “% Inhibition” value was 2% and the Z score is recorded as -0.42.
In the case of `CCNC(=NCc1noc(C(C)(C)C)n1)NCC`, the “% Inhibition” value stood at 1% and the Z score is -0.1.
